This note sets out measurements from the RNAGym collection of RNA variant scans (doi:10.1073/pnas.2313332121).

This sample is rich in variants without activity.

B1: TPR 5TU (parent)
chain: GGAUCUUCUCGAUCUAACAAAAAAGACAAAUCUGCCACAAAGCUUGAGAGCAUCUUCGGAUGCAGAGGCGGCAGCCUUCGGUGGCGCGAUAGCGCCAACGUUCUCAACUAUGACACGCAAAACGCGUGCUCCGUUGAAUGGAGUUUAUCAUG

The variants in this series derive from B1. Kind of series: polymerase ribozyme fitness, log enrichment relative to wild type (log ratio); higher = more active; in vitro selection for triplet polymerase activity. An outline of the steps: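 PCR was used to build mutant libraries for each subunit of a heterodimeric triplet polymerase ribozyme, which were then transcribed. A single in vitro selection round, in triplicate, used a frozen incubation at −7 °C and recovered extended constructs by gel excision, streptavidin beads and RT-PCR. Fitness is the logarithm of genotype enrichment relative to wild-type enrichment, averaged over replicates with inverse-variance weights. The logarithm is base 2, and after Illumina sequencing only genotypes with ≥10 input reads and ≥1 read per output were kept.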
Consider C14G U15G A24G G58C C87G C108A C114U G136A, for which the “polymerase ribozyme fitness (log ratio)” value is ≤ -4.2. As for C14U A22U G42U G94U G141C, the “polymerase ribozyme fitness (log ratio)” value is ≤ -4.2. Next, C14G U15G A20G A26U C72U G140A: ≤ -4.2; C14G G94C: -2.23. With C14U A17C C18G A20G G59U C85U A91U C116U U134A G143U, the “polymerase ribozyme fitness (log ratio)” value was ≤ -4.2.

As for C14G U56A A97G G143C, the “polymerase ribozyme fitness (log ratio)” value was ≤ -4.2. Next, C14G U82C A91U U101C A142C: ≤ -4.2. Consider C14U A22U A41U A120C, for which the “polymerase ribozyme fitness (log ratio)” value is -3.1.

Consider C14U A30U U53C C54U U56C G83C C99U A110G, for which the “polymerase ribozyme fitness (log ratio)” value is ≤ -4.2. In the case of C14U C35A C79U G92C C103A, the “polymerase ribozyme fitness (log ratio)” value is ≤ -4.2. Consider C14U G25C A30U A49U C69G U109A, for which the “polymerase ribozyme fitness (log ratio)” value was ≤ -4.2. As for C14U G92A C99U G141U, the “polymerase ribozyme fitness (log ratio)” value is ≤ -4.2. As for C14U A41C A49G G50A C75G C96A C118A G141U, the “polymerase ribozyme fitness (log ratio)” value is ≤ -4.2.

As for C14U A41U U56A C93A C123A, the “polymerase ribozyme fitness (log ratio)” value is ≤ -4.2. Take C14U G94A G136U: the “polymerase ribozyme fitness (log ratio)” value is -3.85. Regarding C14U G141U, the “polymerase ribozyme fitness (log ratio)” value worked out at 0.0902. The result for C14G G92C C105G reads ≤ -4.2.

In the case of C14G G34C A47C C51U G83U G88U A137C, the “polymerase ribozyme fitness (log ratio)” value is ≤ -4.2. Regarding C14U G84A, the “polymerase ribozyme fitness (log ratio)” value was -1.56. Take C14G U61G: the “polymerase ribozyme fitness (log ratio)” value was -3.62.

C14G U61A: the “polymerase ribozyme fitness (log ratio)” value was -3.55.

On to C14U C32G C69A, for which the “polymerase ribozyme fitness (log ratio)” value was ≤ -4.2. C14U C32A A37C U44A G62C C75U A106G U109A: the “polymerase ribozyme fitness (log ratio)” value is ≤ -4.2.

For C14U C18G C54G C57U C79A C85A G94A, the “polymerase ribozyme fitness (log ratio)” value is ≤ -4.2. Regarding C14G G46C G59A G71A C96U, the “polymerase ribozyme fitness (log ratio)” value was ≤ -4.2.

C14U A23G A52G G92U G143A A147G C149U: the “polymerase ribozyme fitness (log ratio)” value was ≤ -4.2. For C14G U45A G46C G50C G80U C85U A113C, the “polymerase ribozyme fitness (log ratio)” value is ≤ -4.2. On to C14G U33A A39G C131A, for which the “polymerase ribozyme fitness (log ratio)” value was ≤ -4.2. C14U C87U C99U G124A C125U: the “polymerase ribozyme fitness (log ratio)” value is -2.54.

On to C14U C57G G92A G143A, for which the “polymerase ribozyme fitness (log ratio)” value was ≤ -4.2. For the variant C14U A21U A22C C54A C72U G92A C118U U146C, the “polymerase ribozyme fitness (log ratio)” value was ≤ -4.2.

Turning to C14U A16G U55G G74U C85G A89G, the “polymerase ribozyme fitness (log ratio)” value is ≤ -4.2. The result for C14U G50C C96A A115G A150G reads ≤ -4.2; that for C14U A30G A64G U78A G92C U101C G126A, ≤ -4.2. Consider C14U A28G U31A A39U U44G C87G C95G U139A C149A, for which the “polymerase ribozyme fitness (log ratio)” value is ≤ -4.2. On to C14U G42A C51A U55G C76G G92C C118A, for which the “polymerase ribozyme fitness (log ratio)” value was ≤ -4.2. Regarding C14G G65A C85U U102G A113G G126A G141U, the “polymerase ribozyme fitness (log ratio)” value is ≤ -4.2. Consider C14U C35G G74U G86U C103A C105G G143A, for which the “polymerase ribozyme fitness (log ratio)” value is ≤ -4.2. The result for C14U C38U U53A G70A C93U A107G U139C reads ≤ -4.2. On to C14U C93G A97G C118A U135C A142C U146G, for which the “polymerase ribozyme fitness (log ratio)” value was ≤ -4.2. For C14U A41C G84U G94U, the “polymerase ribozyme fitness (log ratio)” value is ≤ -4.2. With C14U A29U C57A A73G G88C A106G, the “polymerase ribozyme fitness (log ratio)” value is ≤ -4.2. On to C14G G81A G86C C116G G124C, for which the “polymerase ribozyme fitness (log ratio)” value is ≤ -4.2. Turning to C14U G92C G136A, the “polymerase ribozyme fitness (log ratio)” value was -2.51. For C14U A49U C87A C123A A150U, the “polymerase ribozyme fitness (log ratio)” value was ≤ -4.2. As to C14G U56G G68U G81A G84A A91C U135C, the “polymerase ribozyme fitness (log ratio)” value is ≤ -4.2. The result for C14U C36U G65C C96G G136A reads ≤ -4.2; that for C14U G50A U55A G94C U101A C105G G141C, ≤ -4.2.

For the variant C14G U56A, the “polymerase ribozyme fitness (log ratio)” value is -2.57.

For the variant C14U G48C C51U C75A C93G, the “polymerase ribozyme fitness (log ratio)” value was ≤ -4.2. As to C14U C38U G46U G58A U77G U82G A91G U111C A150U, the “polymerase ribozyme fitness (log ratio)” value is ≤ -4.2. Consider C14U A39U C87A, for which the “polymerase ribozyme fitness (log ratio)” value is ≤ -4.2.

For the variant C14U G34C U55G G65C A73G C99A C103A A119U G128A, the “polymerase ribozyme fitness (log ratio)” value was ≤ -4.2. In the case of C14U A24U A26U C35U C85U, the “polymerase ribozyme fitness (log ratio)” value was ≤ -4.2.

Consider C14U A66C U78G C95G C108U, for which the “polymerase ribozyme fitness (log ratio)” value was ≤ -4.2. Regarding C14U A28U C57U G74A, the “polymerase ribozyme fitness (log ratio)” value is ≤ -4.2. As for C14U A19U C27A C36A A47U, the “polymerase ribozyme fitness (log ratio)” value was ≤ -4.2. With C14U A60U C96G, the “polymerase ribozyme fitness (log ratio)” value is ≤ -4.2. Next, C14U G50A C57A C76G C93G: ≤ -4.2; C14U A30C A47G U56A U90C C93A C105A C149G: ≤ -4.2; C14U C51G U53A C75U U130G: ≤ -4.2. As to C14G G46U G48A A73U U77C, the “polymerase ribozyme fitness (log ratio)” value was ≤ -4.2. As to C14U A19G A22C G84U C123G, the “polymerase ribozyme fitness (log ratio)” value was ≤ -4.2.

For the variant C14U A21U C36A A37G, the “polymerase ribozyme fitness (log ratio)” value was ≤ -4.2.

As to C14U C87A G88U, the “polymerase ribozyme fitness (log ratio)” value is ≤ -4.2. As for C14G C87A G94A U104A, the “polymerase ribozyme fitness (log ratio)” value is ≤ -4.2.

For C14G G83A G117U U127G, the “polymerase ribozyme fitness (log ratio)” value was ≤ -4.2. C14G U135A U139G G140C: the “polymerase ribozyme fitness (log ratio)” value is ≤ -4.2.

For C14U A28U C54G G59A U61A G80C G133C, the “polymerase ribozyme fitness (log ratio)” value is ≤ -4.2.

Consider C14G G25C U44G C57U A91G G94U C131A U134G, for which the “polymerase ribozyme fitness (log ratio)” value was ≤ -4.2. In the case of C14U U44A A52C C85G, the “polymerase ribozyme fitness (log ratio)” value is ≤ -4.2. As for C14G U15C C18U A39U A49C G80C A110C, the “polymerase ribozyme fitness (log ratio)” value is ≤ -4.2. Regarding C14U A28G C32U G65A A73C G86C, the “polymerase ribozyme fitness (log ratio)” value was ≤ -4.2. The result for C14U A22C C38U C69G G70A U77C A115G G141C reads ≤ -4.2; that for C14G U15A G68C G83A U111C, ≤ -4.2; that for C14G G133C, ≤ -4.2. On to C14U A52C U53A, for which the “polymerase ribozyme fitness (log ratio)” value is ≤ -4.2.

As for C14G G46A G50C G58U C99G A106U G140A, the “polymerase ribozyme fitness (log ratio)” value is ≤ -4.2.

In the case of C14U A30U C87A, the “polymerase ribozyme fitness (log ratio)” value was ≤ -4.2. Next, C14U A19G A24G G50U U127C: ≤ -4.2. For C14G G88A C116U, the “polymerase ribozyme fitness (log ratio)” value is ≤ -4.2. Regarding C14U G50C A98U C108A, the “polymerase ribozyme fitness (log ratio)” value was ≤ -4.2. For the variant C14U G46A A47C C57A G65C G86U C96U, the “polymerase ribozyme fitness (log ratio)” value is ≤ -4.2. Consider C14U A24C C93U, for which the “polymerase ribozyme fitness (log ratio)” value is ≤ -4.2.
